# According to PubChem BioAssay AID624170 (National Center for Advancing Translational Sciences (NCATS), 2012):
# Hit rate of the full screen: of about 410,000 compounds, about 850 (0.21%) were called active. This list was built around the results that the source calls inconclusive (neither active nor inactive); the mix of calls is not that of the screen. Calls follow the shape of the dose curve; as a rule, active = well fitted inhibition curve with a large enough effect; inconclusive = small, poorly fitted or top-dose-only effect, or another doubt; inactive = no such curve, though single readings can be large or run the other way. No potency is given beside an inconclusive call; the fits are too rough.
# Biological target: Glutaminase kidney isoform, mitochondrial (Homo sapiens) (UniProt O94925)
# UniProt O94925, sequence (O94925 whole entry, looked up, canonical isoform): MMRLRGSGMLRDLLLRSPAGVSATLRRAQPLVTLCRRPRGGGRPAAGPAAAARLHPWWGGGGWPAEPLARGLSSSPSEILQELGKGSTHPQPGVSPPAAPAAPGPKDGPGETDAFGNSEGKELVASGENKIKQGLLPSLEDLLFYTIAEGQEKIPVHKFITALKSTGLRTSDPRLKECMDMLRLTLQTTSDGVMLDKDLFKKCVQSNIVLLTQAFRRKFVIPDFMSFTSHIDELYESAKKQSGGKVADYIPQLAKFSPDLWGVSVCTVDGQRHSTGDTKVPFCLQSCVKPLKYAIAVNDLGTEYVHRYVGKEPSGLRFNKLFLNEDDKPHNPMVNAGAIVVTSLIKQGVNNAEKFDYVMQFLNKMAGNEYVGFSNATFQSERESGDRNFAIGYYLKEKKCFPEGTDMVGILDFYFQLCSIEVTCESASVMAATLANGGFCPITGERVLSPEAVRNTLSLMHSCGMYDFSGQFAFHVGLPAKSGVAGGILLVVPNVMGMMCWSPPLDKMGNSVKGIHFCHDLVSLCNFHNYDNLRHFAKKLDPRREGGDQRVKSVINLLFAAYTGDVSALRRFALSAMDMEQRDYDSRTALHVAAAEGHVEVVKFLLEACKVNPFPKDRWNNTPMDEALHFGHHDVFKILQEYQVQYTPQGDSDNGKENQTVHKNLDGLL
# Assay: qHTS for Inhibitors of Glutaminase (GLS)
# Settings: GLS enzymatic activity, qHTS titration; series mostly up to 45.5 µM
# How it was run: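 hKGA in 45 mM KH2PO4 pH 8.2, 0.02% Tween-20 with pin-transferred compounds; 1 mM L-glutamine (stock) plus glutamate oxidase/HRP/Amplex Red coupling added. Fluorescence read initially and after 30 min at RT.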
# Potency is read from the fitted curve at half-maximal effect; tags tell the direction and shape of the fitted curve.
row,SMILES,Potency
1,Cc1ccccc1-n1nc2c(c1NC(=O)CC(C)C)CS(=O)C2 (stereo unspecified),"inconclusive [inhibitor, single point]"
2,CCCCCC(=O)Nc1ccc(-c2csc(C)n2)cc1,inactive
3,NNC(=O)c1ccc(N2CCc3ccccc32)c([N+](=O)[O-])c1,"inconclusive [inhibitor, partial curve]"
4,COc1ccc(-c2cc(C(=O)O)c3ccccc3n2)c(OC)c1,inactive
5,COc1cc(-c2nnc(SCC(=O)NC3CCCC3)n2C)cc(OC)c1O,inactive
6,Cc1ccc(/C(O)=C2/C(=O)C(=O)N(CC(=O)O)C2c2ccc([N+](=O)[O-])cc2)cc1 (stereo unspecified),"inconclusive [inhibitor, single point]"
7,CC(=O)Nc1sc(N/N=C\c2ccccc2)nc1-c1cccs1,"inconclusive [inhibitor, single point]"
8,COc1ccc(S(=O)(=O)Nc2ccccc2C(=O)NC(C)(C)C)cc1OC,inactive
9,O=C(Nc1cccc(-c2nc3ccccc3[nH]2)c1)c1c(F)cccc1F,inactive
10,CC1CCCC(NC(=O)COC(=O)/C=C/c2ccc(F)cc2)C1C (stereo unspecified),"inconclusive [inhibitor, single point]"
11,OCC1O[C@H](O[C@H]2C(O)C(O)C(O)O[C@@H]2CO)C(O)C(O)C1O (stereo partly specified),inactive
12,COc1ccc(CCC(=O)NCc2nc3cccnc3n2Cc2cccc(OC)c2)cc1,inactive
13,Cc1nc2cc(NC(=O)NC(C)(C)C)ccc2n1C,inactive
14,O=C(N/N=C/c1ccncc1)c1cnccn1,inactive
15,CC(C)(C)OC(=O)N1CSC[C@H]1C(=O)NC[C@H](CC(=O)O)c1ccc(Cl)cc1,"inconclusive [inhibitor, single point]"
16,CN(C)c1cccc(C(=O)NNC(=S)NC2CC3CCC2C3)c1 (stereo unspecified),"inconclusive [inhibitor, single point]"
17,CCN(C(=S)Nc1ccccc1F)C1CCCCC1,"inconclusive [inhibitor, single point]"
18,CCOc1ccc(NC(=O)Cn2sc3nc(C)cc(C)c3c2=O)cc1,"inconclusive [inhibitor, partial curve, poor fit]"
19,Cc1cc(O)c(Sc2ccccc2)c(=O)o1,"inconclusive [inhibitor, single point]"
20,Cc1csc(C(=O)O)c1-n1cccc1,"inconclusive [inhibitor, single point]"
21,CC1Cc2ccccc2N1CC(=O)NC(=O)NC1CCCC1 (stereo unspecified),"inconclusive [inhibitor, partial curve]"
22,CCCc1cc(=S)n2c([nH]c3ccccc32)c1C#N,"inconclusive [inhibitor, single point]"
23,COc1ccc(N(CC(=O)Nc2ccccc2C(N)=O)S(=O)(=O)c2ccc(C)c([N+](=O)[O-])c2)cc1,"inconclusive [inhibitor, partial curve, poor fit]"

row,SMILES,Potency
1,CC(=O)Nc1cccc(-c2csc(Nc3ccccn3)n2)c1,inactive
2,Cc1cc(C(=O)NNS(=O)(=O)c2cc(C(=O)O)ccc2Cl)c(C)n1-c1ccccc1,active: 20 µM
3,c1ccc2nc3c(cc2c1)CCCCC3,"inconclusive [inhibitor, single point]"
4,COc1ccccc1CNC(=O)COC(=O)c1cc(-c2ccco2)nc2ccccc12,"inconclusive [inhibitor, single point]"
5,CN(C)CCNC(=O)c1cccc2ccc(-c3ccc(-c4ccccc4)cc3)nc12,inactive
6,CCSc1nc2sc3c(c2c(=O)n1-c1ccc(OC)cc1)CCN(C)C3,"inconclusive [inhibitor, partial curve, poor fit]"
7,CCN(CC)S(=O)(=O)c1ccc(-c2nnc(SC)o2)cc1,"inconclusive [inhibitor, partial curve]"
8,C#CCOc1c(Cl)cc(C2C3=C(CCCC3=O)N(CC(=O)O)C3=C2C(=O)CCC3)cc1OC,"inconclusive [inhibitor, partial curve, poor fit]"
9,COc1cc(/C=N/n2cnnc2)ccc1OC(=O)c1cccnc1,"inconclusive [inhibitor, single point]"
10,COc1ccc(NC(=O)CSc2nc3ccccc3cc2Cc2ccccc2)cc1,inactive
11,C=CCn1c(-c2ccc(Cl)cc2)c[nH]c1=S,"inconclusive [inhibitor, partial curve, poor fit]"
12,CCC(=O)Nc1ccc2nc3c(=O)[nH]c(=S)[nH]c3nc2c1,"inconclusive [inhibitor, single point]"
13,O=C(O)CN1C(=O)/C(=C\c2cc([N+](=O)[O-])ccc2OCc2ccccc2Cl)SC1=S,"inconclusive [inhibitor, single point]"
14,COc1ccc2c(c1)c(=O)oc1cc(OCC(=O)NC3CCCCC3)ccc12,"inconclusive [inhibitor, partial curve, poor fit]"
15,CC(C)C(=O)c1ccc(O)c(O)c1,"inconclusive [inhibitor, single point]"
16,O=C(Nc1cccc(C(F)(F)F)c1)c1ccc2nc(-c3ccco3)c(-c3ccco3)nc2c1,"inconclusive [inhibitor, single point]"
17,Cc1ccc(/C=C/C(=O)NC2CCCCCCC2)o1,active: 10 µM
18,Oc1ccccc1-c1nc2c3ccccc3c3ccccc3c2[nH]1,inactive
19,Cc1cc(N2CCCC2)nc2ccc(NC(=S)NCCCN3CCC(C)CC3)cc12,"inconclusive [inhibitor, single point]"
20,COc1ccccc1/C=C/C=N/n1c(-c2ccco2)n[nH]c1=S,"inconclusive [inhibitor, partial curve, poor fit]"
21,CCc1nn2c(=O)c(S(=O)(=O)Nc3ccc(C)cc3C)c(C)nc2s1,inactive
22,Cc1nnc(SCC(=O)N(C)C2CCCCC2)s1,"inconclusive [inhibitor, single point]"
23,Cc1nn(-c2ccccc2)c2nc(-c3ccco3)cc(C(=O)O)c12,active: 7.08 µM
